The target in the test is Genome polyprotein (dengue virus type 2) (UniProt P29990).
The mark [1] stands for this setting: Thailand/16681/1984, Concentration 25.0 uM, Number of replicates 1.0.

The whole screen tested about 2,000 compounds, of which about 110 (5.5%) showed an effect of 50% or more. The list shows a part of the results. Residues, ends and D or L forms follow the SMILES beside them. *: point of attachment. pNA = O=[N+]([O-])c1ccc(N*)cc1; Boc = CC(C)(C)OC(=O)*

In the case of `O=Cc1ccc(N2CCC(C(=O)NC[C@H](O)c3ccc(O)c(O)c3)CC2)cc1`, under setting [1], the inhibition was 36.5%.
On to `CSCC[C@H](NC(=O)OC(C)(C)C)C(=O)N1CCC[C@H]1C(=O)Nc1ccc([N+](=O)[O-])cc1` (Boc-Met-Pro-pNA), for which the inhibition by setting is: (Thailand/16681/1984, Concentration 49.5 uM, Number of replicates 2.0, Standard deviation 0.6934296230825803 %) 10.3%; (Thailand/16681/1984, Concentration 99.01 uM, Number of replicates 2.0, Standard deviation 0.4989876662884813 %) 17.1%; (Thailand/16681/1984, Concentration 198.0 uM, Number of replicates 2.0, Standard deviation 0.32485037523299065 %) 29.3%.
On to `Cc1cc(CO)c2cccc(CC(=O)NCc3sccc3C)c2n1`, for which the inhibition by setting is: (Thailand/16681/1984, Concentration 49.95 uM, Number of replicates 2.0, Standard deviation 0.3413314788746907 %) 44%; (Thailand/16681/1984, Concentration 99.9 uM, Number of replicates 2.0, Standard deviation 0.321257440691134 %) 63.7%.
Turning to `Cc1cc(CO)c2cccc(Cc3ccccc3C(=O)N[C@@H](CCCN)C(=O)O)c2n1`, the inhibition is -9.67% (Thailand/16681/1984, Concentration 49.95 uM, Number of replicates 2.0, Standard deviation 1.450239339781055 %) and 0.782% (Thailand/16681/1984, Concentration 99.9 uM, Number of replicates 2.0, Standard deviation 1.946109361538337 %).
Consider `CCc1nc([C@@H](C)NC(=O)c2ccc(O)c(NC(=O)c3ccncc3F)c2C)n[nH]1`, for which the inhibition (Thailand/16681/1984, Concentration 49.5 uM, Number of replicates 2.0, Standard deviation 0.640305880758115 %) is -3.94%; the inhibition (Thailand/16681/1984, Concentration 99.01 uM, Number of replicates 2.0, Standard deviation 0.7647439452243474 %) is -3.61%; the inhibition (Thailand/16681/1984, Concentration 198.0 uM, Number of replicates 2.0, Standard deviation 1.5490355987880475 %) is -3.27%.
In the case of `O=Cc1ccc(N2CCC(C(=O)N3CCN(c4ccccc4Cl)CC3)CC2)cc1`, the inhibition under setting [1] was determined as 11.1%.
Consider `O=Cc1ccc(N2CCC(C(=O)N(Cc3ccc([N+](=O)[O-])cc3)C3CC3)CC2)cc1`, for which the inhibition under setting [1] was 13.8%.
Same read-out and setting: then `O=Cc1ccc(N2CCC(C(=O)N3CC=C(c4ccccc4)CC3)CC2)cc1`, with 5%.
Turning to `c1ccc(-c2csc(C3CCN(Cc4c[nH]c5ccccc45)CC3)n2)cc1`, the inhibition is -0.486% (Thailand/16681/1984, Concentration 49.5 uM, Number of replicates 2.0, Standard deviation 2.0846990733290722 %); 0.057% (Thailand/16681/1984, Concentration 99.01 uM, Number of replicates 2.0, Standard deviation 1.8692609474528468 %); -2.95% (Thailand/16681/1984, Concentration 198.0 uM, Number of replicates 2.0, Standard deviation 2.60699247170438 %).
`O=C1NCc2ccccc2C12CCN(Cc1cc3ccc(F)cc3[nH]1)CC2`: the inhibition reads like this: (Thailand/16681/1984, Concentration 49.5 uM, Number of replicates 2.0, Standard deviation 1.2300831692419745 %) 2.45%; (Thailand/16681/1984, Concentration 99.01 uM, Number of replicates 2.0, Standard deviation 1.1766014315862576 %) 4.6%; (Thailand/16681/1984, Concentration 198.0 uM, Number of replicates 2.0, Standard deviation 0.78073985434599 %) 4.35%.
On to `Cc1cc(C(=O)N2CCN(C(=O)c3cc(C(C)(F)F)n[nH]3)CC2)cc2nn[nH]c12`, for which the inhibition by setting is: (Thailand/16681/1984, Concentration 49.5 uM, Number of replicates 2.0, Standard deviation 0.5040908488530289 %) 1.22%; (Thailand/16681/1984, Concentration 99.01 uM, Number of replicates 2.0, Standard deviation 0.07028947937337628 %) 1.9%; (Thailand/16681/1984, Concentration 198.0 uM, Number of replicates 2.0, Standard deviation 0.7181064342983147 %) 2.65%.
As to `CNC(=O)c1cc(Cl)ccc1NS(=O)(=O)c1ccc(C(=O)N(C)C)cc1`, the inhibition by setting is: (Thailand/16681/1984, Concentration 49.5 uM, Number of replicates 2.0, Standard deviation 0.43931539952348436 %) -0.006%; (Thailand/16681/1984, Concentration 99.01 uM, Number of replicates 2.0, Standard deviation 1.0448066347124485 %) 1.16%; (Thailand/16681/1984, Concentration 198.0 uM, Number of replicates 2.0, Standard deviation 2.436767925477247 %) 5.4%.
As for `O=Cc1ccc(N2CCC(C(=O)Nc3n[nH]c4ccc(Br)cc34)CC2)cc1`, under setting [1], the inhibition was 10.1%.
Consider `Cc1cc(CO)c2cccc(CC(=O)NCc3c(C)noc3C)c2n1`, for which the inhibition is -6.95% (Thailand/16681/1984, Concentration 49.95 uM, Number of replicates 2.0, Standard deviation 0.8979901952671747 %) and -7.49% (Thailand/16681/1984, Concentration 99.9 uM, Number of replicates 2.0, Standard deviation 0.7380557178102791 %).
With `c1ccn2c(CNCc3csc(C4CC4)c3)nnc2c1`, the inhibition (Thailand/16681/1984, Concentration 49.5 uM, Number of replicates 2.0, Standard deviation 0.5098685495811448 %) is -0.274%; the inhibition (Thailand/16681/1984, Concentration 99.01 uM, Number of replicates 2.0, Standard deviation 2.854108358582212 %) stood at 2.26%; the inhibition (Thailand/16681/1984, Concentration 198.0 uM, Number of replicates 2.0, Standard deviation 0.45642626137563413 %) came out at 0.937%.
For `O=Cc1ccc(N2CCC(C(=O)Nc3cc(Cl)c(O)c(Cl)c3)CC2)cc1`, the inhibition under setting [1] came out at 100%.
Consider `CC(C)(COC(=O)c1cncc(N2CCOCC2)c1)NC(=O)c1cc(N)cc(Cl)c1`, for which the inhibition (Thailand/16681/1984, Concentration 49.5 uM, Number of replicates 2.0, Standard deviation 4.620111402718127 %) is -0.804%; the inhibition (Thailand/16681/1984, Concentration 99.01 uM, Number of replicates 2.0, Standard deviation 4.5497544883871335 %) worked out at 0.013%; the inhibition (Thailand/16681/1984, Concentration 198.0 uM, Number of replicates 2.0, Standard deviation 3.728922486542004 %) stood at 3.36%.
Turning to `Cc1cc(CO)c2cccc(NC(=O)C3CCN(C)CC3)c2n1`, the inhibition (Thailand/16681/1984, Concentration 99.9 uM, Number of replicates 2.0, Standard deviation 2.5723142976307076 %) amounted to 0.725%.
`CN1CCN(c2ccc(CCNc3ccccc3F)cc2)CC1`: the inhibition is, setting by setting: (Thailand/16681/1984, Concentration 49.5 uM, Number of replicates 2.0, Standard deviation 1.1725472419342977 %) -4.52%; (Thailand/16681/1984, Concentration 99.01 uM, Number of replicates 2.0, Standard deviation 1.0151129155310683 %) -3.89%; (Thailand/16681/1984, Concentration 198.0 uM, Number of replicates 2.0, Standard deviation 0.9851713728804441 %) -1.99%.
`Cc1cc(CO)c2cccc(Cc3cccc(C(=O)NCCN4CCOCC4)c3)c2n1`: the inhibition by setting is: (Thailand/16681/1984, Concentration 49.95 uM, Number of replicates 2.0, Standard deviation 1.1800261159088588 %) -8.12%; (Thailand/16681/1984, Concentration 99.9 uM, Number of replicates 2.0, Standard deviation 0.7869239771342965 %) -3.46%.
As for `Cc1cc(CO)c2cccc(Cc3ccccc3C(=O)Nc3cc(C)[nH]n3)c2n1`, the inhibition came out at 2.54% (Thailand/16681/1984, Concentration 49.95 uM, Number of replicates 2.0, Standard deviation 0.6446306531775148 %) and 7.83% (Thailand/16681/1984, Concentration 99.9 uM, Number of replicates 2.0, Standard deviation 0.829324212498438 %).
`CN1CCN(c2ccccc2NC(=O)C2CCN(c3ccc(C=O)cc3)CC2)CC1`: the inhibition under setting [1] turned out to be 12.3%.
On to `CC(C)(CO)NC(=O)c1cc(Cl)cc(NCc2cccc(-c3cn[nH]c3)c2)c1`, for which the inhibition (Thailand/16681/1984, Concentration 49.5 uM, Number of replicates 2.0, Standard deviation 0.01630610992668277 %) was -6.32%.
For `CCn1ccnc(N2CC[C@@H](C(=O)NC)C2)c1=O`, the inhibition reads like this: (Thailand/16681/1984, Concentration 49.5 uM, Number of replicates 2.0, Standard deviation 0.10459397948815125 %) 8.05%; (Thailand/16681/1984, Concentration 99.01 uM, Number of replicates 2.0, Standard deviation 0.7657576612247314 %) 14.6%; (Thailand/16681/1984, Concentration 198.0 uM, Number of replicates 2.0, Standard deviation 0.34575656079354644 %) 27.6%.
Take `CC(C)(C)OC(=O)NCc1cccc(NC(=O)[C@@H](N)c2ccc(OCc3ccccc3)cc2)c1`: the inhibition was determined as 3.49% (Thailand/16681/1984, Concentration 49.5 uM, Number of replicates 2.0, Standard deviation 2.6023428313766583 %); 2.53% (Thailand/16681/1984, Concentration 99.01 uM, Number of replicates 2.0, Standard deviation 2.442998620533158 %); 1.59% (Thailand/16681/1984, Concentration 198.0 uM, Number of replicates 2.0, Standard deviation 1.7754301140360438 %).
In the case of `O=Cc1ccc(N2CCC(C(=O)NCCCOCCOCCO)CC2)cc1`, the inhibition under setting [1] worked out at 13.6%.

Broadly, the inhibition is the drop in the measured response relative to a control, in per cent.

Source of the values: ChEMBL document CHEMBL5606460, “ASAP - DENV-2 NS2B-NS3 protease fluorescence single point” (2024).
